Three molecules from article PMC8859912 can be followed below.

By UniProt entry, the sequences of proteins in these tests, tags left out. Where a name states a change or a piece, a line headed by the entry shows the natural chain unless it says otherwise. Residues count along the entry.
UniProt Q80VM7: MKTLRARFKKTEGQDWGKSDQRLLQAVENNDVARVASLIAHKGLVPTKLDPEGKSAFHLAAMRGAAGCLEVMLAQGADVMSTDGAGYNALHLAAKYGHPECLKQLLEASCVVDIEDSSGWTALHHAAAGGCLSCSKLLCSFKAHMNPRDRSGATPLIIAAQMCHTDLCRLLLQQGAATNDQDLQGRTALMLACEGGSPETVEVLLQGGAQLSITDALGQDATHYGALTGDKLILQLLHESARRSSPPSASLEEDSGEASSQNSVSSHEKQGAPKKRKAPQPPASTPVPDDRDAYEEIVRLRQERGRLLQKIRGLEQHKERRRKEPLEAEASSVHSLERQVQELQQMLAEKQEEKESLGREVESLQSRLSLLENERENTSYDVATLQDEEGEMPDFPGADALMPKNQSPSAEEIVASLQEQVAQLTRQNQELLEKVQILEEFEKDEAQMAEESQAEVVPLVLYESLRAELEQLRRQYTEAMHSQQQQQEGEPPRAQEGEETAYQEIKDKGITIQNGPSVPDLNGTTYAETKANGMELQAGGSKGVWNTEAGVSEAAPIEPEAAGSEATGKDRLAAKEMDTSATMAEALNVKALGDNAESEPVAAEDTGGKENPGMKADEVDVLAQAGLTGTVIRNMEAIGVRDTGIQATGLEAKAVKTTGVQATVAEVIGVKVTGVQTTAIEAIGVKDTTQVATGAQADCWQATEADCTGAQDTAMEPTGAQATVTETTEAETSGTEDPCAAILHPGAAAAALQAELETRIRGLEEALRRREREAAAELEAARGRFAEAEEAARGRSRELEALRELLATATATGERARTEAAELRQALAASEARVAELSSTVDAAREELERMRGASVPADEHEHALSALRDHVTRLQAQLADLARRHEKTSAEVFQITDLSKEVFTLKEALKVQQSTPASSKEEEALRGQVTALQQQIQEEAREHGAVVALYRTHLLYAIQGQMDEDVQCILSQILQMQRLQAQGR
ANKRD24 Trunc6-HA: residues 489-985 of Q80VM7

No constants are given. Whether binding was seen depends on the method and setting. In cells and extracts the contact can be indirect. Some entries that bind do so weakly or less than the wild type. For part of these data: Sequences can lack the tags named with a protein.

One test concerns the target T1, Myc–TRIOBP-1 (UniProt Q99KW3).
T1 sequence: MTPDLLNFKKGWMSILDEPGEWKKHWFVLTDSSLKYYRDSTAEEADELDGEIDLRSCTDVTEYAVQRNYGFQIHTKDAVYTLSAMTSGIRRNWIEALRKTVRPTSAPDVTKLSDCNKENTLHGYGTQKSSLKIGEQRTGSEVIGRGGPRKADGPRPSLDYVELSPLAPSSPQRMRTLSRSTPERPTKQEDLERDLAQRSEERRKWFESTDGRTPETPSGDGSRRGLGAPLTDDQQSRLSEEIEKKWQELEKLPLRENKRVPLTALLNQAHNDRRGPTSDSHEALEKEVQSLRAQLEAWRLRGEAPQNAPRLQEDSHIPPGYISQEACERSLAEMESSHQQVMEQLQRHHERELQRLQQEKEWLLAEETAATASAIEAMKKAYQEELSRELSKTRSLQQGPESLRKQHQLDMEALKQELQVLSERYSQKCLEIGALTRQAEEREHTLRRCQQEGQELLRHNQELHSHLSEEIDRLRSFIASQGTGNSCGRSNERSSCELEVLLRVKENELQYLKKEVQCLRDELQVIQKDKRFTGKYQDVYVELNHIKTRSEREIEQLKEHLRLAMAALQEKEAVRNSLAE
The experiment in a line: co-IP; HEK293 cells transfected with both constructs; immunoprecipitation with anti-Myc, co-IP detected with anti-HA.

The target in another test is T2, Myc–TRIOBP-4 (UniProt Q99KW3).
T2 sequence: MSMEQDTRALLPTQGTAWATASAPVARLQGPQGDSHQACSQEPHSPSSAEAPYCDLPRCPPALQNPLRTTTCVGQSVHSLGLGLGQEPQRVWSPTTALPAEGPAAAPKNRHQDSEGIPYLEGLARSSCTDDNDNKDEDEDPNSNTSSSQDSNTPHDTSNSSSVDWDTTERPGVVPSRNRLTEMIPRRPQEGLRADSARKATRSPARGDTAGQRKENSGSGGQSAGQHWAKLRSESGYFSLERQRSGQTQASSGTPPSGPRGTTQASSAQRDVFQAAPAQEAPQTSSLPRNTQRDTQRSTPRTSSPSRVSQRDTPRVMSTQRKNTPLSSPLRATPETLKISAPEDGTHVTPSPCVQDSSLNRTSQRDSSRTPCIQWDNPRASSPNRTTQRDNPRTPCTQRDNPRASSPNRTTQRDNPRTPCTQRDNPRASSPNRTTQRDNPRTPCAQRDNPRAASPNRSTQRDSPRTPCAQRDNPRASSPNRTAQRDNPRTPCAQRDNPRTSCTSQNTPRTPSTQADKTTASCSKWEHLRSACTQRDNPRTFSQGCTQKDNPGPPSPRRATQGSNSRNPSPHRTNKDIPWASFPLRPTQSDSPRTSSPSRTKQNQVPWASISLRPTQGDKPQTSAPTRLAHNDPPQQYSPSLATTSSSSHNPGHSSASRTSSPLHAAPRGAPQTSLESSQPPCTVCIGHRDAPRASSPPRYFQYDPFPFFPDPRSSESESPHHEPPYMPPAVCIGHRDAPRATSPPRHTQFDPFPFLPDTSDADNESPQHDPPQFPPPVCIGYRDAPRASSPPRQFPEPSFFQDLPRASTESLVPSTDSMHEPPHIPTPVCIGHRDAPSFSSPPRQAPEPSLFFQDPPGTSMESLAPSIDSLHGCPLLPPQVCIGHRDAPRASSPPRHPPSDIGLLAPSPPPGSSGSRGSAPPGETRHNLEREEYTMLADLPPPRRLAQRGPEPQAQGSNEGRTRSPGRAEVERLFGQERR
Described as above.

For a further test, the target named is Myc–TRIOBP-5 (UniProt Q99KW3). The description is as above.
For test [1], the target named is ANKRD24 Trunc6-HA (mouse) (UniProt Q80VM7). The test is described as follows: co-IP; HEK293 cells transfected with both constructs; lysis in 50 mM Hepes, 150 mM NaCl, 1% Triton X-100, 1 mM EDTA, protease inhibitors; immunoprecipitation with anti-HA agarose beads; immunoblot. A general note: A western blot detects proteins with antibodies after separation by electrophoresis.

Another test addresses ANKRD24-HA (mouse) (UniProt Q80VM7). Described as above.

Turning to ANKRD24-HA (from UniProt Q80VM7 1-985), the binding entry in the test with Myc–TRIOBP-1 was “binds”; with Myc–TRIOBP-4, “no binding”; with Myc–TRIOBP-5 it was “binds”.

ANKRD24-GFP (from UniProt Q80VM7 1-985): the binding result (in test [1]; in the test with ANKRD24-HA (mouse)) was “binds” in each case.

B1: TRIOBP-4-GFP (protein, UniProt Q99KW3-5 1-980)
chain: T2 sequence
B1: the binding entry with ANKRD24-HA (mouse) was “no binding”.
